Results on five molecules are retold here after PMC2774266, “Misguided Transcriptional Elongation Causes Mixed Lineage Leukemia” (PLoS Biology, 2009).

By UniProt entry, the sequences of proteins in these tests, tags left out. Where a name states a change or a piece, a line headed by the entry shows the natural chain unless it says otherwise.
UniProt Q6XZL8: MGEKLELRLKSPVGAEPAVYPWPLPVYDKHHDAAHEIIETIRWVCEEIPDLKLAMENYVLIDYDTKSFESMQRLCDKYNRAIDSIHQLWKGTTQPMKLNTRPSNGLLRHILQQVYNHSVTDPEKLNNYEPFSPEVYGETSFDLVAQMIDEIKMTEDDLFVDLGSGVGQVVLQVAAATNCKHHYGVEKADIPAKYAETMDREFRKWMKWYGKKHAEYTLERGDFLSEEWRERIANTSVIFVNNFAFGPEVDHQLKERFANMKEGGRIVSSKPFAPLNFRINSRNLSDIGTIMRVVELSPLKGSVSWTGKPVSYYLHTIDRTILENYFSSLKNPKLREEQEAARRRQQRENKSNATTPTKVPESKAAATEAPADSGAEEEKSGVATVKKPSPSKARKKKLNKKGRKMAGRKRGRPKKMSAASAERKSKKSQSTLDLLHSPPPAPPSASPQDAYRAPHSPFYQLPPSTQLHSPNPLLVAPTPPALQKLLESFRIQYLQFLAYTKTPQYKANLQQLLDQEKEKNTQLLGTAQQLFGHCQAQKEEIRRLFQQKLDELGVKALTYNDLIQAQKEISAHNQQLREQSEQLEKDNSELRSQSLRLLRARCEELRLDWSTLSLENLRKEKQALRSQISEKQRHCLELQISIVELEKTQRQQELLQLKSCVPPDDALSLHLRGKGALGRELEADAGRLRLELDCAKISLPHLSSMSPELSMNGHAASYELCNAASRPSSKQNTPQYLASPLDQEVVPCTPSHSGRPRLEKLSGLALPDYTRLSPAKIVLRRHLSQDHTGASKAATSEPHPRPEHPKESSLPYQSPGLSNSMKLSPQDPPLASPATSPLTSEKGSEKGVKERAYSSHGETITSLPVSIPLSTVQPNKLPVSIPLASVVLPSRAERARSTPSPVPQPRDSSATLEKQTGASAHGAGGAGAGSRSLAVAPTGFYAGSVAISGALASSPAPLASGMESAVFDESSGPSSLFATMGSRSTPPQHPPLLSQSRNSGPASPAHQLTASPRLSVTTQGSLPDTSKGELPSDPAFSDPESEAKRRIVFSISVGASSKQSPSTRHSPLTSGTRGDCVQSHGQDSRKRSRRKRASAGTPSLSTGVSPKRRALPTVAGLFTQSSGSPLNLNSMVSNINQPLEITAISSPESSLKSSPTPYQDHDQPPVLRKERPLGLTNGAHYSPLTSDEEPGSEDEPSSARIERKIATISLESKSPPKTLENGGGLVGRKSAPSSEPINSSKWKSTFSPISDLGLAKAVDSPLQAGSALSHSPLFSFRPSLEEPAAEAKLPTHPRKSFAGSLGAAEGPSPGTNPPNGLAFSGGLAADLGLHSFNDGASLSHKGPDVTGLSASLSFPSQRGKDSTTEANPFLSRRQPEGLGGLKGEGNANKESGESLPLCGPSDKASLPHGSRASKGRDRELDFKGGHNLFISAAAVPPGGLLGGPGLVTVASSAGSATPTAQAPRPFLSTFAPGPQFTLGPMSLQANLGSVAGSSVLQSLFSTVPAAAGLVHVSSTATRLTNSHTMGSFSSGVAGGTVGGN
UniProt Q03164: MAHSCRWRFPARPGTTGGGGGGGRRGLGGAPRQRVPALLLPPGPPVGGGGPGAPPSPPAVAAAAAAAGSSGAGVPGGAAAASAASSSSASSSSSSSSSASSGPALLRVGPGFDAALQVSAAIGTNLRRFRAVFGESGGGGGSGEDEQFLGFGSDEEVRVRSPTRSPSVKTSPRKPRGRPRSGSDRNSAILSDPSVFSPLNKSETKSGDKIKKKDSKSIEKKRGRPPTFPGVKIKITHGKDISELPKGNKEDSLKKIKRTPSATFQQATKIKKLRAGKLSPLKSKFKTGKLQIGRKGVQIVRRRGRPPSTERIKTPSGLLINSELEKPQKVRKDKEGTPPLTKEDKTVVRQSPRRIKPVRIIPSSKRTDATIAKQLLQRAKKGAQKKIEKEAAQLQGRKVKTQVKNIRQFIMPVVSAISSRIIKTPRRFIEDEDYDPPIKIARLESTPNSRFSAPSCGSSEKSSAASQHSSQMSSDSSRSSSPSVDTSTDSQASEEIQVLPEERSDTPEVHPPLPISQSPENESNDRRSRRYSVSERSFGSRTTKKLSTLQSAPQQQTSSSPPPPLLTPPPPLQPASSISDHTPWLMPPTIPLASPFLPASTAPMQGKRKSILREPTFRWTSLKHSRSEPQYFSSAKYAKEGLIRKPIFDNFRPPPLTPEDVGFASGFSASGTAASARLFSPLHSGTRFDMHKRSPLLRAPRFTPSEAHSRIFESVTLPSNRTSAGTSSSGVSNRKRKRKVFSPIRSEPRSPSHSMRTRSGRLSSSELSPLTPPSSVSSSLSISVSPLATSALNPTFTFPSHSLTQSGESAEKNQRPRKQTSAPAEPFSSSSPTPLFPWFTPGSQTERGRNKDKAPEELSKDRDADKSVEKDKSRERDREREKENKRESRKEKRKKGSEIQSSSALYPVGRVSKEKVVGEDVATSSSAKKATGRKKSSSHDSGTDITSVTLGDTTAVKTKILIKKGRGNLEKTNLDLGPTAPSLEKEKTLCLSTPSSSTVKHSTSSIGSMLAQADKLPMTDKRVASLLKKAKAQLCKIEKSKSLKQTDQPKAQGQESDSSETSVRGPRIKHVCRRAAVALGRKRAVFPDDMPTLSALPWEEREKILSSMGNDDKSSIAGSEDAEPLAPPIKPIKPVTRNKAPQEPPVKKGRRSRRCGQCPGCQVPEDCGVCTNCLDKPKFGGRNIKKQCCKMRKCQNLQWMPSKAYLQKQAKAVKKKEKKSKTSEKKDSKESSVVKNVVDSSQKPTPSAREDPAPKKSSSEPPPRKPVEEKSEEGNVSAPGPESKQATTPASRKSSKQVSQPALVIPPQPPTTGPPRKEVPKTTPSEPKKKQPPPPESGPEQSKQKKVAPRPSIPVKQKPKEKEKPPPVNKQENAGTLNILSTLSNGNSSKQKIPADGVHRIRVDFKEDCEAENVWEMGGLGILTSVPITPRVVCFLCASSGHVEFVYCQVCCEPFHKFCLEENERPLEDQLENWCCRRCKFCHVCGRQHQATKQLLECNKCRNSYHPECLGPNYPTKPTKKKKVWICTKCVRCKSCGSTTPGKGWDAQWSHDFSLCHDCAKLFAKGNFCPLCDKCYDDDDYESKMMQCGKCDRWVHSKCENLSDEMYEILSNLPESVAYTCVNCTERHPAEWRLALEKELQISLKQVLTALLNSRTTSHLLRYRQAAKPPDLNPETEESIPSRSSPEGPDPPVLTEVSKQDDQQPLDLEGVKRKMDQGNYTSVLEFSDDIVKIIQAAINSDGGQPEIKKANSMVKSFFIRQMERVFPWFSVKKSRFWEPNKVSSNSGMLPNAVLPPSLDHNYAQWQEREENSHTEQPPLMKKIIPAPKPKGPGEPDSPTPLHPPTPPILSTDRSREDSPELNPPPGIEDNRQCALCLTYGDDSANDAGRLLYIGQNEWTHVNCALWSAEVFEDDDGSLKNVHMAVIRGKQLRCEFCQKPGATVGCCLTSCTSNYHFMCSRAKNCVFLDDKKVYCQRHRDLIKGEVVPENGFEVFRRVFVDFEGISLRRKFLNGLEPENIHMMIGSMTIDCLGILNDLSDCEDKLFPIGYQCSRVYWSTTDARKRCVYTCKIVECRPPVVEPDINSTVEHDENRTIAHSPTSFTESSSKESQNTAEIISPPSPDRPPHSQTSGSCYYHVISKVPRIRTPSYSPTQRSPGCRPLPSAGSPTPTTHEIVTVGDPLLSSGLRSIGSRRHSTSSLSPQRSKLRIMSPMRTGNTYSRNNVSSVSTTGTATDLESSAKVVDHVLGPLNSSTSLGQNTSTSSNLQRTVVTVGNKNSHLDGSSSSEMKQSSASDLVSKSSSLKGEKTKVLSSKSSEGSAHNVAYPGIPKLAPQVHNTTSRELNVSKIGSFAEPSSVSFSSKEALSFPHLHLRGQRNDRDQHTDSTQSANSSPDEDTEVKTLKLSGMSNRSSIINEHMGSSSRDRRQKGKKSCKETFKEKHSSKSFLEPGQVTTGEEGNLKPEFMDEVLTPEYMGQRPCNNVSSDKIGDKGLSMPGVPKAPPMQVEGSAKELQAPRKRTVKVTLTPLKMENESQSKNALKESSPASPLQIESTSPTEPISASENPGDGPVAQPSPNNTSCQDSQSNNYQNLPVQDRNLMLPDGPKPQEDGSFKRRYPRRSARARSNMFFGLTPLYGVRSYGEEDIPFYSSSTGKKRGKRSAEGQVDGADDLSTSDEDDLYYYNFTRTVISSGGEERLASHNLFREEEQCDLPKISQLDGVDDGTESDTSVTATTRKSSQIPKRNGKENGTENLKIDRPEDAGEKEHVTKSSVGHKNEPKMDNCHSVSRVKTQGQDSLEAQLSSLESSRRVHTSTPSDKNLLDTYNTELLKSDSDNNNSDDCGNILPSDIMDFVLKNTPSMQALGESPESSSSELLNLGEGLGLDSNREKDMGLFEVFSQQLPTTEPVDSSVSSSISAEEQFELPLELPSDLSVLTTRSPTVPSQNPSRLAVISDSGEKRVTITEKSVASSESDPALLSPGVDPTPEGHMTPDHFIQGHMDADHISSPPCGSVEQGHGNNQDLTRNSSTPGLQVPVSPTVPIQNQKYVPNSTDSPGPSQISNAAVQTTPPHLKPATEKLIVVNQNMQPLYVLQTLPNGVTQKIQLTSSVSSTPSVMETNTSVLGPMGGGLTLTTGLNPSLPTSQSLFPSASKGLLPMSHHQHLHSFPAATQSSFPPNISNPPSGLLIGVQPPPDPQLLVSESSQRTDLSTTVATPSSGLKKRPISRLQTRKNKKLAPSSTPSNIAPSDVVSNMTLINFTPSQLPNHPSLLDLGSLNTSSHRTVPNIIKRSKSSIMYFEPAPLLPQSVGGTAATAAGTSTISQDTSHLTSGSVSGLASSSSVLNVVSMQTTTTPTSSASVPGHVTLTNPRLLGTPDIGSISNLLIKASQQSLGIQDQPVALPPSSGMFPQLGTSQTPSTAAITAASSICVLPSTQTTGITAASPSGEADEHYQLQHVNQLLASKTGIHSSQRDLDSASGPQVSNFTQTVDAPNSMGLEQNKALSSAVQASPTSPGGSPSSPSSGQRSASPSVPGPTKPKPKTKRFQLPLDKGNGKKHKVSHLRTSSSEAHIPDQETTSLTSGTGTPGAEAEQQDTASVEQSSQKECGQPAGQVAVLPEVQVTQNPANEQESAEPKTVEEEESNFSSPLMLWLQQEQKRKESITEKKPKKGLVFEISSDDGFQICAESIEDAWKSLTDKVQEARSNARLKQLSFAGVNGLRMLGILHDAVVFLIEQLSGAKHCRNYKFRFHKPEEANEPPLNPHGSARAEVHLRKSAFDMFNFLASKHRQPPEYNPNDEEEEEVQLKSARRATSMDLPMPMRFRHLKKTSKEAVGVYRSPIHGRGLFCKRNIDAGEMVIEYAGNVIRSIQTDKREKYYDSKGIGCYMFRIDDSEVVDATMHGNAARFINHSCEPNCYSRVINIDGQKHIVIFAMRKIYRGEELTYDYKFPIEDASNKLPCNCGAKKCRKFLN
UniProt P50750: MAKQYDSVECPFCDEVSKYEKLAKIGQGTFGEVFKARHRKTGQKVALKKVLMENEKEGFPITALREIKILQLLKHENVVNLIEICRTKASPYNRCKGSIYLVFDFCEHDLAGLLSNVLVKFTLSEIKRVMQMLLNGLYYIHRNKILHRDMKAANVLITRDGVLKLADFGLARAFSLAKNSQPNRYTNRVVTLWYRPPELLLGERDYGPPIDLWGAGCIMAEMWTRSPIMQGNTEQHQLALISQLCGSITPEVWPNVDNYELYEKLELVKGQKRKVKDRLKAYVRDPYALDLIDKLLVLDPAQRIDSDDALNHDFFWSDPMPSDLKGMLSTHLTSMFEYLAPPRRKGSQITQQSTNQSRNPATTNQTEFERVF

Assay [1] concerns the target T1, ENL (eleven nineteen leukemia protein), full-length two-hybrid fusion (human) (UniProt Q03111).
T1 sequence: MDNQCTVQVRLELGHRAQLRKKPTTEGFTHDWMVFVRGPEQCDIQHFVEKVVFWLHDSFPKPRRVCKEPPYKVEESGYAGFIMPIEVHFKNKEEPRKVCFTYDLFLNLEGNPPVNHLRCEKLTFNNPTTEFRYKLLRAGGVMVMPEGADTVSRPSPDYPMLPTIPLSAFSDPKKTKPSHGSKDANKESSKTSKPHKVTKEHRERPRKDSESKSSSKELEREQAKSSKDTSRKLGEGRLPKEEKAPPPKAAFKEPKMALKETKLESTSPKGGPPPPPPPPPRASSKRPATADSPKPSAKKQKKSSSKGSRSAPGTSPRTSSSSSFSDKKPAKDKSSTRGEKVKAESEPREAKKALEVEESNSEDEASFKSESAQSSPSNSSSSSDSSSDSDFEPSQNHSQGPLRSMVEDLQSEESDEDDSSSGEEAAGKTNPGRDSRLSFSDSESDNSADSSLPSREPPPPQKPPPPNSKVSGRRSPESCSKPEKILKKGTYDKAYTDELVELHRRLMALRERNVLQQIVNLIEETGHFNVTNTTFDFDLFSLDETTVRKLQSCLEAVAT
In words: two-hybrid; yeast strain AH109; deletion series of bait clones against full-length versions as GAL4-activation fusions; growth on media missing histidine and adenine.

For assay [2], the target named is Dot1l (disruptor of telomeric silencing like), mouse, two-hybrid fusion (mouse) (UniProt Q6XZL8). The description is as above.
Assay [3] addresses T2, AF4 (ALL1 fused gene on Chromosome 4), two-hybrid fusion (human) (UniProt P51825).
T2 sequence: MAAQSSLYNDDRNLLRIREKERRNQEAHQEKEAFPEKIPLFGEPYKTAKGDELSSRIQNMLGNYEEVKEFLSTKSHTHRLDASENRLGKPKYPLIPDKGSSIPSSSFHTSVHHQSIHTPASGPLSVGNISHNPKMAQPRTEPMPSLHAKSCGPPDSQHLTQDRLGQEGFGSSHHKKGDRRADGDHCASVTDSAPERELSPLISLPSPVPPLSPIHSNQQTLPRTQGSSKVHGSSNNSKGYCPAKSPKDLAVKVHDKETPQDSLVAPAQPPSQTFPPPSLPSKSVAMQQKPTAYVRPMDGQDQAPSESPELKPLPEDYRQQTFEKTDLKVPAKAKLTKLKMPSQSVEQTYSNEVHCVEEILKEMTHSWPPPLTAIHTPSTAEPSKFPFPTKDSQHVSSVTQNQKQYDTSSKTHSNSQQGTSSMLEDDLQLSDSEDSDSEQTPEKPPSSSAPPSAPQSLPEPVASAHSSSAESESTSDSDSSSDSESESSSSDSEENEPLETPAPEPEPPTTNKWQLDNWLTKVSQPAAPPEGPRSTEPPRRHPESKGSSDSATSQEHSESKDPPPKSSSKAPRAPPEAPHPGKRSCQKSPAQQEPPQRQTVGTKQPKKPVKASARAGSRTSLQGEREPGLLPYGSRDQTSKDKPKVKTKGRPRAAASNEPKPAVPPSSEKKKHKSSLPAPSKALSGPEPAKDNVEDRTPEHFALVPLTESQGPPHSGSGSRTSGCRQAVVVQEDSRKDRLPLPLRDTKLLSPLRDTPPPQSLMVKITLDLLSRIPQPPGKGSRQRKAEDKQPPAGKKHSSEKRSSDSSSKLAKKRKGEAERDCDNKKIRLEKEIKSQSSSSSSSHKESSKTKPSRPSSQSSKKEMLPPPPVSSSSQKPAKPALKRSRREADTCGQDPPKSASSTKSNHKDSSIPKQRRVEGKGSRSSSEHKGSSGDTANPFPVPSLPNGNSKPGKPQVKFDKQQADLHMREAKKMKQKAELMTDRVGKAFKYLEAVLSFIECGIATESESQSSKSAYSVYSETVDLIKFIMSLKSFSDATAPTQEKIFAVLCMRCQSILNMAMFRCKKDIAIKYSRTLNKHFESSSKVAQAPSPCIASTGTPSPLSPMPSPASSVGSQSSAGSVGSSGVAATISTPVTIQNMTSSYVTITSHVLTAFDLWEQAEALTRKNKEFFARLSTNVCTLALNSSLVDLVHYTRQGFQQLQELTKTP
Described as above.

Assay [4] addresses T3, ENL lacking the last 15 amino acids (ENL 1-544), two-hybrid bait (human) (UniProt Q03111).
T3 sequence: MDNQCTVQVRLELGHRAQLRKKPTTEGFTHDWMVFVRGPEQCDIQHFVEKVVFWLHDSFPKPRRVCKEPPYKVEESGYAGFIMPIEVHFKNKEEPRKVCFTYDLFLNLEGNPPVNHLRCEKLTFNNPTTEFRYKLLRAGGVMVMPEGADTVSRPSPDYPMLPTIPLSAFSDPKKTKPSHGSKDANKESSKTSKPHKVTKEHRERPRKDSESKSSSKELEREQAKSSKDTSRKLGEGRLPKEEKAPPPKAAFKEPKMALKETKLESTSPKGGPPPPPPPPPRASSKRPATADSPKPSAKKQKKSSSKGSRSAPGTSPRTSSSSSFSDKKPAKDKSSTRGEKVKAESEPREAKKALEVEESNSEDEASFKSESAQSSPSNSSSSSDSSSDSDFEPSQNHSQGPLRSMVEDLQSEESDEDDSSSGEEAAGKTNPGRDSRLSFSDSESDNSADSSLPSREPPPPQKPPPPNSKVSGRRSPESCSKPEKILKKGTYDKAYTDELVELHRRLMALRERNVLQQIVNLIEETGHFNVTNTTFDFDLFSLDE
The assay is described as above.

The target in assay [5] is wild-type MLL of REH cells (human (endogenous in REH)) (UniProt Q03164). In words: co-IP; native SEM (MLL-AF4) and REH (no 11q23 translocation) cells, all proteins endogenous; anti-MLL IgM (HRX107) coupled to sepharose; blots for ENL and CDK9.

These are yes or no findings as the source states them, for the method shown. For some assays here: In cells and extracts the contact can be indirect. Some results given as binding are weak or reduced against the parent protein; the word gives no strength. For some assays here: Where a sequence is shown, tags or fusion partners need not be part of it.

In the case of “CYCT2A (Cyclin T2, the cyclin component of pTEFb), two-hybrid fusion (from UniProt O60583-2 1-663)”, the binding entry in assay [1] is given as “no binding”; in assay [2] it was “binds”; in assay [3], “binds”.

With “Dot1l (disruptor of telomeric silencing like), mouse, two-hybrid fusion (from UniProt Q6XZL8-1 1-1540)”, the values for the binding result in assay [4] and in assay [1] were “no binding” and “binds”, respectively.

With “endogenous CDK9 (cyclin dependent kinase 9, kinase of pTEFb) (from UniProt P50750 1-372)”, the binding result in assay [5] is listed as “no binding”.

B1: ENL (eleven nineteen leukemia protein), full-length two-hybrid fusion (natural protein, human, UniProt Q03111 1-559, looked up)
chain: T1 sequence
For B1, the binding result in assay [3] is reported as “binds”.

B2: endogenous ENL (protein, UniProt Q03111 1-559)
chain: T1 sequence
As to B2, the binding entry in assay [5] is recorded as “no binding”.
